# Measured values from paper PMC4336329 (PLoS ONE, 2015).
# Screen size: about 310,000 compounds; about 14,000 (4.5%) showed an effect of 50% or more. Effects have a minus sign here. The list shows a part of the results.
# Target: human ether-à-go-go-related gene (hERG) potassium channel (human, UniProt Q12809)
# Assay: primary screen, population patch clamp on CHO cells stably expressing hERG
# 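Also: peak tail current of the secondary pulse compared with the same well before compound.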
# Sequence of human ether-à-go-go-related gene (hERG) potassium channel (Q12809 whole entry, looked up): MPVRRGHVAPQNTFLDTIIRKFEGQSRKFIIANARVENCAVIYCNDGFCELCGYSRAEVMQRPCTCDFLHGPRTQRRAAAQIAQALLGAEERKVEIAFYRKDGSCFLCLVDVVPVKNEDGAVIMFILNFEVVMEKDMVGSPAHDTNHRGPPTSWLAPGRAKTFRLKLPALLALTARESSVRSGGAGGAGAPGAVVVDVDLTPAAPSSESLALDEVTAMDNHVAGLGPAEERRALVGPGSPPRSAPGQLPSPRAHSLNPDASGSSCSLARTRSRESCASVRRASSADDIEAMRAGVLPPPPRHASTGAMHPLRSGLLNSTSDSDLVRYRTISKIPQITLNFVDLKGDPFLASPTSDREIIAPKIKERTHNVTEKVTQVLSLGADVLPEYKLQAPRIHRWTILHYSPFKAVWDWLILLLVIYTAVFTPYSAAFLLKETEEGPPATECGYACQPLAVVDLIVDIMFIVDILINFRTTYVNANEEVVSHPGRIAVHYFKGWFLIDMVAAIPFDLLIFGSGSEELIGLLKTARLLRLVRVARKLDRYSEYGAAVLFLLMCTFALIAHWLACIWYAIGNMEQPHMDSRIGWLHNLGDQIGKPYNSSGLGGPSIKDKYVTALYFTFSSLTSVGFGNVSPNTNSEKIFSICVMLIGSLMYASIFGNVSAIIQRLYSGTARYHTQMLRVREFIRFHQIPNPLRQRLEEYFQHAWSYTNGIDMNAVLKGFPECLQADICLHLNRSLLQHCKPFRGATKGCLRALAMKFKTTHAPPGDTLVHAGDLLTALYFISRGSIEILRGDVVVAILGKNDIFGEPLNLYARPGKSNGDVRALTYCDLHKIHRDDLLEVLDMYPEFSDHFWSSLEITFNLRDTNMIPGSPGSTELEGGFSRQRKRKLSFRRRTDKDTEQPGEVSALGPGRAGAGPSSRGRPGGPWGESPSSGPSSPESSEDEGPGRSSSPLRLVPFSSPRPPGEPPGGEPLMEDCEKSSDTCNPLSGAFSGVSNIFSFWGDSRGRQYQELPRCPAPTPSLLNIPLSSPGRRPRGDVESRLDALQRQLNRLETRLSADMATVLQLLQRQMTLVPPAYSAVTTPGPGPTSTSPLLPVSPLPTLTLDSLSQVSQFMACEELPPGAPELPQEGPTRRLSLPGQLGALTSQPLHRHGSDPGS
row,SMILES,"hERG current change (%, negative = inhibition) at 10uM"
1,COc1ccc(NC(=O)CSCC(=O)N2CCN(c3cccc(C(F)(F)F)c3)CC2)cc1,-32.9%
2,CCOC(=O)C1CCCN(C(=O)c2ccc([N+](=O)[O-])c(C)c2)C1 (centres unmarked),-0.429%
3,Cc1cc(C(C)(C)C)ccc1OCC(=O)N/N=C\c1c(C)n(C)n(-c2ccccc2)c1=O,-66.3%
4,CCCSc1ccc([C@H]2N[C@@](C)(C(=O)OC)[C@H]3C(=O)N(C)C(=O)[C@@H]23)cc1OC.O=C(O)C(F)(F)F,0.0383%
5,Cc1ccc(S(=O)(=O)N2CCN(C(=O)N(C)C)CC2)cc1,28.5%
6,CCCCCn1c(=O)[nH]c2cc(C(=O)N3CCN(Cc4ccc5c(c4)OCO5)CC3)ccc2c1=O,-4%
7,COc1cc(NC(=O)[C@H](C)NC(=O)N2CCn3c2nc2ccccc23)cc(OC)c1,-41.6%
8,NC(=O)Cn1c2[n+](c3ccccc31)CC(O)CS2.[Br-] (centres unmarked),6.9%
9,CN(CC(=O)Nc1ccc(F)c(F)c1F)C(=O)c1ccc2c(c1)OCCO2,3.18%
10,COc1cccc(C(=O)NC(=S)Nc2ccc(N(C)C)cc2)c1,9.85%
11,COc1ccc(CNC(=O)CCn2c(=O)oc3ccccc32)cc1,-5.31%
12,O=[N+]([O-])c1ccc(N2CCN(C(=S)Nc3cccc(F)c3)CC2)cc1,-52%
13,COc1ccc(-c2cc(C(=O)N3CCOCC3)no2)cc1OC,-6.25%
14,CC(C)CC1NC2(C(=O)N(C)c3ccccc32)C2C(=O)N(C(C)C)C(=O)C12 (centres unmarked),-5.28%
15,Cc1ccc([C@@H]2C[C@H]3CN(Cc4cccc(Cl)c4)C(=O)[C@]34CCCN24)o1,-34.3%
16,COc1cc(N(C)C)c(NC(C)=O)cc1C(=O)O,23.6%
17,O=C1N(c2cccc3ccccc23)C(c2ccccc2)N2CCCN12 (centres unmarked),-1.93%
18,Cc1nc(S(=O)(=O)Cc2ccccc2)nc2c1CCC2,13.4%
19,O=C(NCC(c1cccnc1)N1CCN(c2ccc(F)cc2)CC1)C1CCCCC1 (centres unmarked),-45.5%
20,COc1ccc(OC)c(-c2nnc(-c3ccc(C)o3)o2)c1,-7.99%
21,Cc1ccc(C)c(S(=O)(=O)N2CCN(C(=O)Cn3c(C(F)(F)F)nc4ccccc43)CC2)c1,-1.16%

row,SMILES,"hERG current change (%, negative = inhibition) at 10uM"
1,COc1cccc2cc(-c3ccccc3)oc12,14.3%
2,COc1cccc(N2CCN(C(c3ccccn3)c3nnnn3C(C)(C)C)CC2)c1 (centres unmarked),1.38%
3,Cc1ccccc1NC(=O)Cn1nc(C(F)(F)F)cc1C1CC1,8.48%
4,CCC(=O)c1cn(CC(=O)Nc2ccc(C)cc2C)c2ccccc12,18.9%
5,O=C(COc1ccccc1)NNC(=O)c1cc2ccccc2o1,-9.75%
6,CCc1ccccc1NC(=S)Nc1cc(OC)c(NC(=O)C(C)C)cc1OC,17.1%
7,COc1ccc(CN2CCN(S(=O)(=O)c3ccc(NC(C)=O)cc3)CC2)cc1OC.O=C(O)C(=O)O,-23.3%
8,COCCn1c(=O)c2c(nc3n2CCCN3Cc2ccccc2)n(C)c1=O,-17.2%
9,Cc1ccc(NC(=O)c2cc3c(CO)cnc(C)c3oc2=Nc2cccc(C(N)=O)c2)cc1,11.2%
10,Cc1ccc(NC(=O)CC2C(=O)N(Cc3ccccc3)C(=S)N2NC(=O)c2ccccc2)c(C)c1 (centres unmarked),13.7%
11,CCC1CCCCN1Cc1c(O)ccc2c(=O)c(-c3ccccc3)coc12 (centres unmarked),-19.9%
12,COc1ccc(Cl)cc1S(=O)(=O)N(C)CC(=O)N1CCOCC1,25.5%
13,O=C(O)CNC(=O)CC12CC3CC(CC(C3)C1)C2,12.6%
14,COC(=O)C[C@H]1c2cc(C(F)(F)F)ccc2S(=O)(=O)N1Cc1ccc(OC)cc1,-25.3%
15,O=C(O)/C=C1\NC(=O)c2ccccc21,17%
16,Cn1cccc1Cc1nnc(SCC(=O)NCc2ccc3c(c2)OCO3)n1CCc1ccccc1,-17.2%
17,CS(=O)(=O)N1CCC(C(=O)NCCN2CCN(Cc3ccccc3)CC2)CC1,20.4%
18,Cc1ccc(Cl)c(OCC(=O)NCC(c2cccs2)N2CCOCC2)c1 (centres unmarked),-12.4%
19,COc1ccccc1N1CCN(C(=O)C2C3C=CC4(CN(Cc5ccccc5Cl)C(=O)C24)O3)CC1 (centres unmarked),-7%
20,Cc1ccc(-c2nn3nnnc3c3ccccc23)cc1,14.3%
21,CC(C)S(=O)(=O)C1=NSC2=NC(=O)/C(=C\c3ccc(-c4ccccc4)o3)C(=N)N21,11.3%

row,SMILES,"hERG current change (%, negative = inhibition) at 10uM"
1,CCOc1ccc(-n2cnnn2)cc1S(=O)(=O)NCCc1ccc(OC)c(OC)c1,-12.9%
2,O=C(COC(=O)c1ccccc1OC(F)F)Nc1ccc2[nH]c(=O)[nH]c2c1,4.45%
3,CN1CCN(CC(O)COc2ccccc2)CC1 (centres unmarked),-0.905%
4,CCCn1c(N)c(N(CCOC)C(=O)c2cccc(Cl)c2)c(=O)[nH]c1=O,42.9%
5,CCCCC1(Cc2ccc([N+](=O)[O-])cc2)C(=O)N(c2ccccc2)N(c2ccccc2)C1=O,-5.55%
6,CCCCN(C)C(=O)CS(=O)(=O)Cc1nc(-c2cccc(OC)c2)oc1C,-18.6%
7,O=c1cc(-c2ccccc2)[nH]n1-c1nc2ccccc2s1,14.2%
8,O=C(NC1CCCCC1)C1CCCN1S(=O)(=O)c1ccc(Cl)cc1 (centres unmarked),3.18%
9,CC1CN(C(=O)CN2C(=O)NC3(CCCC3)C2=O)C(=Nc2cccc(S(=O)(=O)N(C)C)c2)S1 (centres unmarked),-32%
10,Cc1ccn2c(=O)nc(SCC(=O)NC3CCCC3)nc2c1,-3.35%
11,Cc1c(C(=O)NCC2COc3ccccc3O2)oc2ccc(S(=O)(=O)N3CC(C)CC(C)C3)cc12 (centres unmarked),12.4%
12,Cc1ccc(S(=O)(=O)NCC2CCC(C(=O)NCc3ccc4c(c3)OCO4)CC2)cc1 (centres unmarked),-0.473%
13,Cc1ccc(OCC(=O)O/N=C(\N)Cc2ccc(Cl)cc2)cc1,10.9%
14,Cc1cccc2sc(NC(=O)c3ccc(OCC4CCCO4)cc3)nc12 (centres unmarked),9.85%
15,COc1ccc(OC)c(/C=N/NC(=O)c2cc3c(OC)cc(OC)cc3[nH]2)c1,18.4%
16,COc1ccc(Cl)cc1NS(=O)(=O)c1cccc(C(=O)NCC2(N(C)C)CCCCC2)c1,-35.5%
17,O=c1c2ccccc2sc2ccc(NCCCN3CCOCC3)cc12,-54.2%
18,CCCOC(=O)Nc1sc2c(c1C(N)=O)CCCC2,28.3%
19,CCOC(=O)/C(N=Nc1c(C)n(C)n(-c2ccccc2)c1=O)=C(\C)O,0.837%
20,CCS(=O)(=O)c1ccc2oc(Nc3cc(Cl)ccc3OC)nc2c1,-0.211%
21,CCn1c(COc2ccc(=O)n(-c3ccccc3)n2)nnc1SCc1ccccc1C,-65.4%

row,SMILES,"hERG current change (%, negative = inhibition) at 10uM"
1,O=C(COC(=O)CCc1c[nH]c2ccccc12)NC1CCS(=O)(=O)C1 (centres unmarked),8.32%
2,CCCCC1(C(=O)OCC)CC(CN2CCOCC2)OC1=O (centres unmarked),-3%
3,Cc1ccc(NC(=O)C2CCN(S(=O)(=O)c3ccc4c(c3)OCCO4)CC2)nc1,-0.232%
4,CCCOC(=O)c1cccc(NC(=O)c2cccnc2)c1,-39.7%
5,COc1ccc(C(=O)N2CC(=O)Nc3ccc(F)cc3C2c2ccccc2)cc1 (centres unmarked),-7.66%
6,CCOC(=O)COc1ccc2c(c1)c(C(=O)OCC)c(C)n2CC,-29.1%
7,NC(=O)c1ccc[n+](CC(=O)c2ccc(NC(=O)c3ccccc3)cc2)c1.[Br-],27.1%
8,O=C(Nc1ccc2c(c1)OCO2)C(c1ccccc1)N1CCN(C(=O)c2ccco2)CC1 (centres unmarked),-33.2%
9,O=C(C[N+]12CC[N+](CC(=O)c3ccc(F)cc3)(CC1)CC2)c1ccc(F)cc1.[Cl-],12.7%
10,O=C(CSc1nc2cc(Cl)ccc2s1)NC1CCCc2ccccc21 (centres unmarked),-2.3%
11,CCCCNC(=O)c1ccccc1NC(=O)c1ccc2c(c1)OCO2,8.79%
12,[2H]c1c([2H])c([2H])c(-c2nc(N3CCCCCC3)sc2C(=O)c2ccccc2)c([2H])c1[2H],-2.19%
13,CCS(=O)(=O)N1CCN(CC(=O)NC2CCCCC2)CC1.Cl,15.4%
14,COc1ccc(S(=O)(=O)N2CCC(C(=O)NCCC(=O)NCc3ccncc3)CC2)cc1,11%
15,COc1ccc(/C=N/OCC(=O)N=Nc2c(O)[nH]c3ccc(Br)cc23)cc1OC,2.62%
16,CCN(CC)S(=O)(=O)c1ccc2[nH]cc(C(=O)NCCCN3CCCCC3C)c(=O)c2c1 (centres unmarked),-4.48%
17,O=C(COc1ccccc1[N+](=O)[O-])Nc1ccccc1N1CCCCC1,-5.76%
18,COc1ccc(OC)c(NC(=O)CSc2ncccn2)c1,4.45%
19,CCCCN(C(=O)NC(=O)C1=C(N2CCOCC2)/C(=C/c2ccccc2)CC1)S(C)(=O)=O,-6.13%
20,CCC(c1nnc(SCC(=O)Nc2ccc(C(=O)Nc3ccccc3OC)cc2)o1)N(C)C (centres unmarked),2.59%
